Drawing on publication PMC3901232, this text covers binding for one molecule.

For assay [1], the target named is T1, EIICB^Glc-K382A-5His (E. coli K-12) (UniProt P69786).
T1 sequence: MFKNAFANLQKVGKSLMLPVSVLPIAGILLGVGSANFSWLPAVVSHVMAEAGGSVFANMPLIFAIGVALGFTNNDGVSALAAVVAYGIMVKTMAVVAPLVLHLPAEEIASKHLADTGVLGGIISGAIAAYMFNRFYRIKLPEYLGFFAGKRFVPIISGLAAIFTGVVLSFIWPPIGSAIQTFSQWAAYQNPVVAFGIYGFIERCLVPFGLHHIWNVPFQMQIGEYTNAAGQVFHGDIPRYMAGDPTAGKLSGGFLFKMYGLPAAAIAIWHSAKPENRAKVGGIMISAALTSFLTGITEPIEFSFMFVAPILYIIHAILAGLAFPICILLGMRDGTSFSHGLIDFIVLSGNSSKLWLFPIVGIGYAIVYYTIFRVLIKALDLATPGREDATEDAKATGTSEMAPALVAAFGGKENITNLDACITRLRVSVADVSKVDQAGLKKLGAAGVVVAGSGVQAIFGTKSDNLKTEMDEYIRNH
The assay is described as follows: cross-linking; in vivo, 0.3% paraformaldehyde for 20 min at 37 °C; PTS-positive cells (JKA12; also the dgsA deletion strain LJB17) grown with 0.2% glucose; membrane proteins solubilised with 2% Triton X-100; EIICB^Glc-His purified on Ni-NTA agarose; co-purified SgrT-3HA detected by Western blot. (A western blot detects proteins with antibodies after separation by electrophoresis.)

The target in assay [2] is T2, EIICB^Glc-V12F-5His (E. coli K-12) (UniProt P69786).
T2 sequence: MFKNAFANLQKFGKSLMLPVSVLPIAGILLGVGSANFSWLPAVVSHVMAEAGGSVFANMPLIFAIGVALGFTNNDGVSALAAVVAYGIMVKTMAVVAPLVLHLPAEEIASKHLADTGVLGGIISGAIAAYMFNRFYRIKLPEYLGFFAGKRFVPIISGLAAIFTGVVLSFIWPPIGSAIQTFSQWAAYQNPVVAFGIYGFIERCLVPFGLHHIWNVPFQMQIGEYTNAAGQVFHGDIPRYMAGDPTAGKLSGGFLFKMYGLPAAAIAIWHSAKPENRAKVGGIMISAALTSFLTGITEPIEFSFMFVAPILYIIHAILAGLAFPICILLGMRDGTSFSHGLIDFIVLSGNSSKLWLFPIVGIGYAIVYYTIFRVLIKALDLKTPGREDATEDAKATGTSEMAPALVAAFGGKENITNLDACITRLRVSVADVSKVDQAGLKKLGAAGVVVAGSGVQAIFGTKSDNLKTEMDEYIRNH
The assay is described as above.

These are yes or no findings as the source states them, for the method shown. In cells and extracts the contact can be indirect. Some results given as binding are weak or reduced against the parent protein; the word gives no strength. Where a sequence is shown, tags or fusion partners need not be part of it.

MRQFYQHYFTATAKLCWLRWLSVPQRLTMLEGLMQWDDRNSES (peptide, UniProt C1P5Z7 1-43) [SgrT-3HA]: the binding result in assay [1] and in assay [2] was “binds” throughout.
